The values that follow come from PMC4336329 (PLoS ONE, 2015).

Hit rate of the full screen: of about 310,000 compounds, about 14,000 (4.5%) showed an effect of 50% or more. The effect is printed as a negative number. Some of the results follow.
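Note: peak tail current of the secondary pulse compared with the same well before compound.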

For the assay, the target named is human ether-à-go-go-related gene (hERG) potassium channel (human, UniProt Q12809). Nature of the assay: primary screen, population patch clamp on CHO cells stably expressing hERG.
Sequence of human ether-à-go-go-related gene (hERG) potassium channel (Q12809 whole entry, looked up): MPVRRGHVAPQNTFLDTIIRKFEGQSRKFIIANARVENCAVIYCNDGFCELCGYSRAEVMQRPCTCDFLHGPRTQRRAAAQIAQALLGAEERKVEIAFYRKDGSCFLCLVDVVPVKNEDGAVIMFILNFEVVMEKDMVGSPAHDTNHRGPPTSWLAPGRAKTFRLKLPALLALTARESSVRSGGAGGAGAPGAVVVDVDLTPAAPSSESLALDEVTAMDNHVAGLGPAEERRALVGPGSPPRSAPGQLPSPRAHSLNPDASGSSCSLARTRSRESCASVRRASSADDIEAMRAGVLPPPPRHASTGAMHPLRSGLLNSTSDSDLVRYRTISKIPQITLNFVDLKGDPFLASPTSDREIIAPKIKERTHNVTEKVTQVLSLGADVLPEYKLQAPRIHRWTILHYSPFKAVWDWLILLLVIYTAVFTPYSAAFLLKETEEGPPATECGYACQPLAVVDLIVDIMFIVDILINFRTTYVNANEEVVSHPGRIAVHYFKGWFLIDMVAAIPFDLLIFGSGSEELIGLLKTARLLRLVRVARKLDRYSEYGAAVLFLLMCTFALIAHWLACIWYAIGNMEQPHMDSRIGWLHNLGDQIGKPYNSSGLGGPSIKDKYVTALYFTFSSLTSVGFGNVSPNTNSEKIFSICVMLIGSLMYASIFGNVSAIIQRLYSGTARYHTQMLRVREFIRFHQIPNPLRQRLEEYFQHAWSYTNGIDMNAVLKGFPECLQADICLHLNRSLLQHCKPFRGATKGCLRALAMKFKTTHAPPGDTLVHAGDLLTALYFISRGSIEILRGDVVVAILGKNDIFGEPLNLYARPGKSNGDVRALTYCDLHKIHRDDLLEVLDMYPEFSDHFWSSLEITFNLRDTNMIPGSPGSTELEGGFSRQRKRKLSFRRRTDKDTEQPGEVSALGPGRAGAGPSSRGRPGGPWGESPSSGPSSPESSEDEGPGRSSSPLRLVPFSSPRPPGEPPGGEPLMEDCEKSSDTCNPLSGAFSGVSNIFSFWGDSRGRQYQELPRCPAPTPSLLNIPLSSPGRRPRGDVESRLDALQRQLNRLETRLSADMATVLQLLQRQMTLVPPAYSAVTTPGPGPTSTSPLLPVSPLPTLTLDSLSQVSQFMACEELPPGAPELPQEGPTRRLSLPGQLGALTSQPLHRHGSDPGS
Take `O=C(NCc1cccnc1)C1CCN(S(=O)(=O)c2cccs2)CC1`: the “hERG current change (%, negative = inhibition) at 10uM” value is given as -32.8%.

Take `COc1ccc(-c2c(NC(=O)c3ccco3)n(C)c3ccccc3c2=O)cc1`: the “hERG current change (%, negative = inhibition) at 10uM” value is -4.88%.

Consider `COc1cc(/C=N/n2cnnc2)ccc1OC(=O)c1ccncc1`, for which the “hERG current change (%, negative = inhibition) at 10uM” value is recorded as 8%.

For `CC1(C)Cc2c(sc(N)c2C#N)C(C)(C)N1`, the “hERG current change (%, negative = inhibition) at 10uM” value is 11%.

Take `CC(=O)Nc1ccc(OS(=O)(=O)c2ccc([N+](=O)[O-])cc2)cc1`: the “hERG current change (%, negative = inhibition) at 10uM” value is -12.1%.

Regarding `Cn1cnnc1SCc1ccc(C(=O)N=Nc2c(O)n(C)c3ccccc23)cc1`, the “hERG current change (%, negative = inhibition) at 10uM” value is listed as -7.53%.

Turning to `Cc1ccc(NC2CCCN(C(=O)c3ccccn3)C2)cc1C` (centres unmarked), the “hERG current change (%, negative = inhibition) at 10uM” value was 18.4%.

As for `COc1ccc(CC(=O)Nc2c3c(nn2-c2cccc(C)c2C)CS(=O)C3)cc1OC` (centres unmarked), the “hERG current change (%, negative = inhibition) at 10uM” value is 18.7%.

With `CN(C)S(=O)(=O)c1cccc(NC(=S)NC2CCCCC2)c1`, the “hERG current change (%, negative = inhibition) at 10uM” value turned out to be 6.69%.

On to `Cc1ccc([N+](=O)[O-])cc1NC(=O)c1cccs1`, for which the “hERG current change (%, negative = inhibition) at 10uM” value is reported as 18.4%.

As to `CCOC(=O)c1c(C)c(C(=O)NCc2ccco2)c(C)n1C`, the “hERG current change (%, negative = inhibition) at 10uM” value was -12.1%.

On to `Cn1cnc(S(=O)(=O)N2CCN(c3ccc(F)cc3)CC2)c1`, for which the “hERG current change (%, negative = inhibition) at 10uM” value is recorded as -10.1%.

For `Oc1c(Br)cc(Br)cc1Br`, the “hERG current change (%, negative = inhibition) at 10uM” value is given as 14.1%.

For `CN1CCc2nc(NC(=O)COc3ccc(C#N)cc3)sc2C1`, the “hERG current change (%, negative = inhibition) at 10uM” value is reported as -7.85%.

As for `O=C(Cn1c(CO)nc2ccccc21)NCc1ccc2c(c1)OCO2`, the “hERG current change (%, negative = inhibition) at 10uM” value is given as 5.15%.

In the case of `CCCCNC(=O)COC(=O)c1c2c(nc3ccccc13)/C(=C/c1cccs1)CC2`, the “hERG current change (%, negative = inhibition) at 10uM” value is reported as -1.07%.

Regarding `CCCCNC(=O)c1sc2ncnc(N3CCc4ccccc4C3)c2c1C`, the “hERG current change (%, negative = inhibition) at 10uM” value was -50.5%.

Turning to `O=C(CCC1CC(=O)Nc2ccccc21)NCc1cccnc1` (centres unmarked), the “hERG current change (%, negative = inhibition) at 10uM” value amounted to 3.52%.

For `CC(=O)N[C@@H](CC(=O)N[C@H](CCC(=O)O)C(=O)O)C(=O)O`, the “hERG current change (%, negative = inhibition) at 10uM” value is given as -2.64%.

Consider `C=CCN(C(=O)c1csnn1)C(C(=O)NC1CCCC1)c1ccc(OC)cc1` (centres unmarked), for which the “hERG current change (%, negative = inhibition) at 10uM” value was -6.72%.

`CCCc1ccc(-c2cc(C(=O)NN3CCOCC3)c3ccccc3n2)cc1`: the “hERG current change (%, negative = inhibition) at 10uM” value is reported as -3.8%.

With `CCCN(CCC)C(C(=O)Nc1cccc(OC)c1)c1ccccc1` (centres unmarked), the “hERG current change (%, negative = inhibition) at 10uM” value was -2.23%.

Regarding `CCC1(C)CC(C(N)=S)CCO1` (centres unmarked), the “hERG current change (%, negative = inhibition) at 10uM” value is given as 27.4%.

As to `CCN(CC)C(=O)c1ccc2c(=O)n(Cc3cccc(Br)c3)c(=S)[nH]c2c1`, the “hERG current change (%, negative = inhibition) at 10uM” value is given as 14%.

Consider `O=C(CSc1nc(=O)n(CCCN2CCOCC2)c2c1CCC2)Nc1ccc(F)cc1F`, for which the “hERG current change (%, negative = inhibition) at 10uM” value is given as -41.8%.

Consider `COc1ccc(-n2nc(C(=O)Nc3nc4ccc(OC)cc4s3)c3ccccc3c2=O)c(OC)c1`, for which the “hERG current change (%, negative = inhibition) at 10uM” value is given as 5.1%.

Regarding `O=C(O)C1CCCN1C1=NS(=O)(=O)c2ccccc21` (centres unmarked), the “hERG current change (%, negative = inhibition) at 10uM” value was 0.0855%.

In the case of `Cc1nnc2n(c1=O)C(CS(=O)(=O)c1ccc3ccccc3c1)CS2` (centres unmarked), the “hERG current change (%, negative = inhibition) at 10uM” value amounted to 1.28%.

Turning to `O=C(Nc1ccc(F)cc1)c1nc[nH]c1C(=O)Nc1ccccc1[N+](=O)[O-]`, the “hERG current change (%, negative = inhibition) at 10uM” value is -4.96%.

In the case of `COc1ccc2nc(SCC(=O)NC3CCCCC3C)[nH]c2c1` (centres unmarked), the “hERG current change (%, negative = inhibition) at 10uM” value is 0.801%.

As to `Cc1ccc(C2CC(=O)C=C(O)C2)cc1` (centres unmarked), the “hERG current change (%, negative = inhibition) at 10uM” value stood at 3.29%.

For `O=C(NC(=S)Nc1cccc(Cl)c1N1CCCCC1)c1ccco1`, the “hERG current change (%, negative = inhibition) at 10uM” value is on record as 26%.

As to `COC(=O)c1c(N)n(CCCN2CCOCC2)c2nc3ccccc3nc12`, the “hERG current change (%, negative = inhibition) at 10uM” value is -29.9%.

Consider `CC(C)CCNC(=O)CNC(=S)N(Cc1ccccc1)Cc1cccnc1`, for which the “hERG current change (%, negative = inhibition) at 10uM” value is given as -24.4%.

Consider `COC(=O)c1cc(-c2ccccc2)sc1N`, for which the “hERG current change (%, negative = inhibition) at 10uM” value came to 11%.

Turning to `Nc1c(C(=O)NCc2ccccc2)c2nc3ccccc3nc2n1-c1ccc2c(c1)OCO2`, the “hERG current change (%, negative = inhibition) at 10uM” value is 5.58%.

On to `CCc1sc(N(C(=O)Cc2ccccc2)c2cccc(F)c2)nc1-c1ccc(C)cc1`, for which the “hERG current change (%, negative = inhibition) at 10uM” value is -7.18%.

For the compound `CN1C(CC(=O)c2ccccc2)CCCC1CC(O)c1ccccc1` (centres unmarked), the “hERG current change (%, negative = inhibition) at 10uM” value is given as -82.4%.

For `O=C(COC(=O)c1cc(=O)[nH]c2ccccc12)c1ccccc1`, the “hERG current change (%, negative = inhibition) at 10uM” value was 11.7%.

Turning to `O=C(COC(=O)C1CC(O)CN1S(=O)(=O)c1ccc(Cl)cc1)c1ccccc1` (centres unmarked), the “hERG current change (%, negative = inhibition) at 10uM” value is on record as -31.7%.

In the case of `CCc1nc(SCC(=O)Nc2ccc([N+](=O)[O-])cc2)n[nH]1`, the “hERG current change (%, negative = inhibition) at 10uM” value is on record as -6.52%.

For `COc1ccc(S(=O)(=O)N2CCN=C2SCc2cccc(C)c2)cc1`, the “hERG current change (%, negative = inhibition) at 10uM” value is given as 17.8%.

As to `O=C(N/N=C/c1ccccc1)c1cc(=O)[nH]c2ccccc12`, the “hERG current change (%, negative = inhibition) at 10uM” value was found to be 5.04%.

`C=C(C)C(=O)Nc1cccc(C2=NOC3(C2)C[C@@H](C(N)=O)N(C(=O)CC(c2ccccc2)c2ccccc2)C3)c1` (some centres unmarked): the “hERG current change (%, negative = inhibition) at 10uM” value is -4.39%.

Take `CN1CCN(c2ccccc2NC(=O)c2ccc(-c3cccc([N+](=O)[O-])c3)o2)CC1`: the “hERG current change (%, negative = inhibition) at 10uM” value is on record as -51.8%.

As for `Cc1ccc(S(=O)(=O)N(CC(=O)O)Cc2ccco2)cc1`, the “hERG current change (%, negative = inhibition) at 10uM” value was found to be 19.3%.

`CCCCn1c(/C=N/Nc2nc3ccccc3[nH]2)nc2ccccc21`: the “hERG current change (%, negative = inhibition) at 10uM” value is on record as -25.7%.

Consider `Nc1nonc1-n1nnc(C(=O)N/N=C/c2ccccc2Cl)c1-c1ccccc1`, for which the “hERG current change (%, negative = inhibition) at 10uM” value is 22.9%.

With `COc1ccccc1C(=O)NCC(=O)N/N=C/c1ccc([N+](=O)[O-])cc1`, the “hERG current change (%, negative = inhibition) at 10uM” value is recorded as 2.53%.

Consider `CC(CCc1ccccc1)NC(=S)NC1CCCCC1` (centres unmarked), for which the “hERG current change (%, negative = inhibition) at 10uM” value came to 12%.

Consider `CCc1nnc2sc(-c3ccc(NC(=O)CSc4ccc(Cl)cc4)cc3)nn12`, for which the “hERG current change (%, negative = inhibition) at 10uM” value was found to be 15%.

As for `CCOc1ccc2nc(SCC(=O)N3c4ccccc4Sc4ccccc43)c(C#N)cc2c1`, the “hERG current change (%, negative = inhibition) at 10uM” value stood at 9.47%.

On to `c1cnc(-c2noc(CN3CCN(C4C5CC6CC(C5)CC4C6)CC3)n2)cn1` (centres unmarked), for which the “hERG current change (%, negative = inhibition) at 10uM” value is reported as 6.38%.

Regarding `Cc1ccccc1NC(=O)COC(=O)c1ccc(S(C)(=O)=O)c([N+](=O)[O-])c1`, the “hERG current change (%, negative = inhibition) at 10uM” value was -0.568%.

As for `CCOc1cccc(N(C(=O)CNC(=O)c2ccco2)C(C(=O)NCC2CCCO2)c2ccccc2)c1` (centres unmarked), the “hERG current change (%, negative = inhibition) at 10uM” value was 1.86%.

On to `C#CCOCCOCCOCCNc1nc(N2CCN(C(=O)[C@H]([C@@H](C)O)n3cc(CCCC[NH3+])nn3)CC2)nc(N2CCN(C(=O)[C@H](CCCC[NH3+])n3cc(CC(C)O)nn3)CC2)n1.[Cl-]` (some centres unmarked), for which the “hERG current change (%, negative = inhibition) at 10uM” value was determined as 2.63%.
